Laboratory results: a compilation of properties of binary mixtures (doi:10.1016/j.molliq.2019.110987)
The densities may have been worked out from excess volumes.

Assay: xn = mol fraction of the nth substance listed
Details: 100 kPa

CN(C)C=O + CCCC[P+](C)(CCCC)CCCC.COS(=O)(=O)[O-]
x2 = 0
Details | mass density [kg/m3]
293.15 K | 949
298.15 K | 944.5
303.15 K | 940
313.15 K | 931.1
318.15 K | 926.5

CCCC[P+](C)(CCCC)CCCC.COS(=O)(=O)[O-] + CN(C)C=O
mass density [kg/m3]
Details | 293.15 K | 298.15 K | 303.15 K | 308.15 K | 313.15 K | 318.15 K | 323.15 K
x1 = 0.0474 | 968.3 | 964.9 | 961.8 | 958.4 | – | 950.5 | 945.8
x1 = 0.0765 | 978.3 | 975.2 | – | 968.4 | 964.9 | 961 | 956.2
x1 = 0.1106 | 988.3 | 984.7 | 981.6 | 978.6 | 975 | 971.4 | 966.5
x1 = 0.1508 | 996.6 | 993.6 | 991 | 987.6 | 984 | 980.5 | –
x1 = 0.1991 | 1004.1 | 1000.9 | 999.1 | 996 | 993 | 989.6 | 985.5
x1 = 0.2582 | 1011.5 | 1008.6 | 1006.3 | 1003.9 | 1000.5 | – | 994
x1 = 0.3321 | – | 1016.2 | 1013.9 | 1010.8 | 1007.9 | – | 1001.8
x1 = 0.4272 | – | 1024.1 | 1021.6 | 1019 | 1016 | 1013.5 | 1010.3
x1 = 0.5542 | 1036.5 | 1034 | 1031.6 | 1028.8 | 1025.7 | 1022.7 | 1019.6
x1 = 0.6717 | 1044.2 | 1041.6 | 1038.9 | – | 1033.4 | 1030.6 | 1027.5
x1 = 0.7768 | 1050 | 1047.7 | 1044.9 | 1041.8 | 1039.2 | 1036.5 | 1033.6
x1 = 0.8253 | 1052.7 | 1050.2 | 1047.6 | 1044.6 | 1041.8 | 1039 | 1036.1
x1 = 0.8837 | 1056.1 | 1053.3 | – | 1047.7 | 1044.7 | 1041.7 | –
x1 = 0.9362 | – | 1055.9 | 1053.1 | 1050.1 | 1047.1 | 1044.2 | 1041.2
x1 = 1 | 1061.7 | – | 1055.6 | 1052.5 | – | 1046.5 | 1043.4
